In the RNAGym collection of RNA variant scans (doi:10.7554/elife.90254):
Read counts are not given, so values of variants with three or more changes are uncertain.

B1: LINE1-mini (parent)
chain: GGCAGAGCUCAACACAGCGUGGCAAAGUGGCUGUGGCUAGACUGCC

Variants of: B1
Assay: self-cleavage, relative activity (ratio to wild type); higher = more cleavage; in vitro, sequencing; the parent is a self-cleaving ribozyme

Variant	self-cleavage
GGCAGAGCUCAACACAGCAUGGCAAAGUGGCUAUGGCUAGACUGCG	0.06
GGCAGAGCUCAACACAUCGUGGCAAAAUGGCUGCGGAUAGACUUCC	0.03
GGCAAAGUUCACCACAGCGUGGCAAAGUGGCUGUGGCUAGUUUGCC	0.01
GGCAGAGCUCAACACACUGUGGUAAAGUGGCUGUGGCUAGACUGCC	0.05
GGCAGGGCUCAACACAGCGUGGCAAAGUGUCUGGGGCUAGAUUGCC	0
GGCAGAGCUCAACACAGCGUGGCUAAGAGGGUGUGGCUAGACUGCC	0.45
GGAAGAGCUCAACACAGCGUGGCAAAGGGCCUGUGCCUAGACUGCC	0.05
GGCAGAGCUCAACACAGCGUGGCAAAGUGGCUGUUGCAAUCCUGCC	0.1
GGCAGAGCUCAAUACAACGUGACAAAGUGGUUGUUGCUAGACUGCC	0.04
GGCAGACUUCAACACAGCGUGGCAAAGUGGUUGUGGCUAGACUCCC	0
GGCAGAGCUCCUCACAGCGUGGCACAGUGGAUGUGGCAAGACUGCC	0.01
GGCAGAGCUCAACACAACGUGGCAAAGUGGCUGUGGCUAGUCAGCC	0.24
GGCUGAGCUAAACACAGCGUGGCAAAGCGGCUGUGGCUAGACUGCC	0.04
GACAGUGCUCAACACAGCGUGGCAAAAUGGCUGUAGCUAGACUGCC	0.06
GGCAGAUUUCAACACUGCGUGGCAAAGUGGCUGUGGCUAGACUGCC	0.41
GUCAGAGCUCAACAUGGCGUGGCAAGGUGGCUGUGACUAGACUGCC	0.02
GGCAGAGCUCAACAGAGCGUGGCAAAGUGGGUGUGGCUAGAAUCCC	0.01
UGCAGAGCUCAACGCAGCGUGGCAAAGUGGCGGUGGCUAUAGUGCC	0.09
GGCAGAGCCCAACACACCGUGGCAAAGUGGCUGUGGCUGGACUGCC	0.02
GGCAGAGCUUAACACAGCGUGGCAAAGUGGCUUGGGCUAGACUGCC	0.05
GCCAGAGUUCAACACAGCGUGGCAAUGUUACUGUGGCUAGACUGCC	0.08
GGCAGAGCUUAACACAGCUUGGCAAAGUGGCGGUGGUUAGACUGCC	0.02
GGCAGAGGGCAACACAGAGUGGCAAAGUGGCUGUGGCUAGACCGCC	0.04

Variant	self-cleavage
GGCAGAUCUCAGCACAGCGUGACAAAGUGGGCGUGGCUAGACUGCC	0.03
GGCAGCGCUCAACACAGCGUGGCACAUUGGCUGUGGCUAGACUGCC	0.7
GGCAUAGCUCAACACAGCGUCGCAAAGUGGCUGUGGCUAGACCGCC	0.05
GGCAGCGCUCAAUACAGCCUGGCAAAGUGGCGGUGGCUAGACUGCC	0.22
GGCAAAGCUCAACACAGCGUGGCAAAAUGGCUGUGGCUAGACUACG	0.04
GGCAGAGAUCAACACGGCGUGGCAAGAUGGCUGUGCCUACACUGCC	0.05
GACAGAGCACUACACAGCGUGGCAAAGGGGCUGGGGCUAGUCUACC	0.01
GGCACAGCUCAACACAGCGUGGCAAAGUGGCUGUGGCCAGACUGGC	0.03
GGCAUCGCUCAAUACAGCGUGGAAGUGUGGCUGUGGCUAGACUGCC	0
GGAAGAGCUCAGCACAGCGUGGCAAAGUUGCUGUGGCUAGACUGCC	0.13
GGCUGAGCUAAACACAGCGUGGCAAAGUGGCUGUGGCUAGACUGAU	0.01
GGCAGAGCUCAACACAGCGAGGCAAAGUGGCUGUGGCUAGACGACA	0.04
GGCAGAGCUCAACACAGCGUUGCAAACUCGCUGUGGCUAGACUGCC	1.14
GGCAGAGCUCAACACAGCGUGGCAAUGAGGCUGUGGCUAGACUCCC	0.42
GGCAGAGCUCAACACAGCGUGGAAAAGUGGAUGCGGCUAGACUGCC	0.04
GGUAGAGCUCCACACAGCGAGACGAAGUGGCUGUGGCUAGAGUGCC	0.04
GGCGGAGCUCAACACAGCGUGGCAAAAUAGCUGUGGCUAGACAGCG	0.06
GGUAGAGCUCAACACAGCGUGGCAAAGAUGCUGUGGCUAGACUGCC	0.03
GGCACAGCCCAACACAGCGUGGCAAAGUGGCUGAGGCUAGACUGCC	0.07
GGCAGAGCUCAACACGGCGUGGCCAAGUUGCUGUGGAUAGACUGCC	0.04
GGCAGGGCUCAACACAGCGUGUAAAAGUGGCUGUGGCUAGACUGGC	0.16
AGCAGAGCUCAACACACCGUGGCAAAGUGGCUGUGGCUAGACUGGC	0.05
GGCACUCCUCAAUACAGCGUUGCAAAGUGGCUGUGGCUAGACUGCC	0.29

Variant	self-cleavage
GCCAGAGCUCAACACAGCAAGGCAAAGUGGCUGUGGCGAGACUGCC	0
GGCAGAGAUCAACAAAGCGUGGCAAAGUGGCUGUGGCUAGACUGUC	0.42
GCCAGAGCUCAACACAGCGUGGCAAAGCGGCUUUGACUAGACUGGC	0.03
GGCGGAGCUCAACACAGCGUGCAAAAGUGGCUGUGGCUAGACUGAC	0.25
GGCAGAGCUCAACCCAGCCUGGCAAAGUGGCUGUGGCGAGCCUGCC	0
GGCAGAGCUCAACACAGCGAGGCAAAGUGGCUGUGGCCAGACUGGC	0.03
CGCAGAGAUCAACACAGCGUGGCAAAGUGGCUGUGGCUAGACUGCU	0.01
GGCAGAGCUCAACACAGCGUGUCAAAGUGACUGUGGCUAGAUUGCG	0.16
GUCAGAGCUCAACACAGGGUGGAAAAGUGGCUGUGGCUAGACUGCC	0.01
GGCAGAGCUCAAUACAGCGCGGCAAAGUGGCUGUGUCUAGACUGCC	0.03
GUCAGAGCUCAACACAGUGUGGCAAAGUGACUGUGGCUAGGUUGCC	0.08
GGCAGGGCUCAACACAGCGUGGCAAAGUGGGUGUGGCUAUACUGCC	0
GGCAGAGCUAAACACAGCGUGACAAAGUGGCUGUGUCUAGACUGCC	0.02
GCCUGAGCUCAACACAGCGUGGCAUAGUGGCUGUGGUUAGACUGCC	0.2
GGCAGAGCUAAACACAGCGUUGCAAAGUUGCUGUGGCUAGACUGCC	0.02
GGCAGAGUUCAACACAGCGUGGCAAAGUGGCUGUGGCUACGCCGCC	0.13
UGCUAGGCUCAAGACAGCGUGGCAAAGUGGCUGUGGCUAAACUGCC	0.03
GGCAGAGAUCAACACAGCGUGGUAAAUUGGCUGUGGCUAGACUGCC	0.12
GGCAGAGAUCAACAAAGCGUGGCUAAGUGGCUGUGGCUAGACUGCC	0.11
GUCAGAGCUCAACGCAGCGUGGCAAAGUGGCUGUGGCUAGACUUCC	0
GGCAGAGCUCAACACAGCGUGGCAAAGUGGCCCUGGCUAGUCUGCC	0.02
GGCAUAGCUCAACACAGCGUUGCAAAGGGACUGGGGCUAAACUGCC	0.01
GGCAGAGCUCAAUACAGCGUGGCAAAGUGGCUGUGUCUAGACUGCU	0.04

Variant	self-cleavage
GGCAGAGCUCUUAAGAGCGUGGCAAAGUGGCUGUGGCUAGACUGCC	0.02
GGCAGAGCUCAACACAGCGUGGCACAGAGGCUGUGGAUAGACUGCC	0.03
GGCAGCGCUCAACACAGAGUGGCAAAGUGGCUGUGGCCAGACUGCC	0.07
GCCAGUGCUCAACACAGCGUGGCAAAGUGGCUGUGACUAGACUGCC	0.18
GGCAGAACUCAACACAGCCCGGCAAAGUGGCCGUGGCUAGACUGCC	0.04
GGCAAAGCUCAACACAGCGUGGCAGAUUGGCUGUGGCUAGACUUCC	0.05
GGCAGAACUCAACACAGCGUGUCAAAGGGGCUGUGGGUACACUGCC	0.03
GCCAGAGCUAAGCACAGCGUGGCACAGUGGCUGUGGCUGGACGGCC	0
GGCAUAGCUCAACACAGCGUGGCAAAGUUGCUGUGGCUAGGCUGCC	0.07
GGCAGAGUUCAACACAGCGUGGUGAAGUGGCUGUGGCUAGACUGCC	0.02
GGCAGAGCUCAACAGAGCGCGGCAAAGUGGCUGUGGCUAGACUGCG	0.01
GGCAGAGCUCAAUACAGCGGGCCAAAGUGGCUGUGGCUAGACUGCC	0.06
GACGGAGCUCAACAAAGCGUGGCAAAGUGGCUGUGACUAGACUGCU	0.21
GGCAGAGCUCAACACACCGUGGCAAAGUGGAUGUGGCUAGGCUGCC	0.13
GGCAGAGCUCGACACAGCGUUGCAAAGUGGCUGUGGCUAGACUGCU	0.03
AGCAGAGCUCAACAAAGCGUGGCAAAGUGGCUGUGGCUAGAUUGCC	0.05
GGCAGAGCUCAACACGGUGUGGCAAAGUGGCUGUCGCUAAACCGCC	0.01
GGCAGACCUAAACAGAGCGUGGCAAAGUGGCUGUGGCUAGUCUGCC	0.01
GGCCGAGCUCAACACAGCGUGGCAAAGUGGCUAUUGGUAGACUGCC	0.05
GGCAGAGAUCAAGACAGCGUGGCAAAGUGGCUUUGGCUAUACUGCC	0.63
GGCAGAGCUCAACACAACGAAGCAAAGUGGCUGUGGCUAGACAGCC	0
GGACGAGCUCGACACAACGUGGAAAAGUGGCUGUGGCCAGACUGCC	0.03
GGCAGAGCUUAACACAGCGUGGCAAGGCGGCUGUGGAUAGACUGCC	0

Variant	self-cleavage
GGCAGAGCCCAACACAGCGUGGCAAAGGGGUUGUCGCUAGACUGCC	0.08
GGCAGAGCUAAACUCAGCGUGCCAAAGUGUCUGUGGCUAGACUGCC	0.01
GGCAGAGCUCAAAACAGCUAGGCAAAGUGGCUGUGGCUAGACUGCU	0.05
GGCAUGGCUCAACACAGCGUGGCAAAGUGGCUGUAGUUAGACUGCC	0.02
GGCAAAGCUCACCACAGAGUGGCAAAGUGGCUGUGGCUAGACUGCC	0.01
GGCAGACCUCAACACAGCGUGGCAAGGUGGCUGUGGCUGGACUGCC	0.06
GGCCGAGCUCAAUACAGCGUGGCAAAGUGGCUGUGGGUAGACUGCC	0.19
GGCAGAGCGCGACACAGCGUGGCAAAGUGUCUUUGGCUAGACUGCC	0.01
GGCAGAGCUAAACUCAGCGUGGCAACGUGGCUGUGGUUAGACUGCC	0.01
GGCAGAGCUCAACCCAGCGUCGCAAAGUGGCUGUGGCUAGAUUGCC	0.1
GACAGAGCUCAACACAGCGUGGCUAAGUCGCUGUGGCUAGAUUGCC	0.55
GGAAGAACUCAACAGAGCGUGGCAAAGUGGCUGUGGGUAGAUUGCC	0.11
GGCAGAGCUCAACAGAGCGUGGCAAAGUGGCUAUGGCUAGCCUGCC	0.04
GGCAGAGCUCAACACAGCGUAGCUAAGUGCCUGUGCCUAGACUGCC	0.13
GGCAGAGCUCAAUACAGCGCGGCAAAGAGGCUGUGGCUAGACUCCC	0.02
GGCAGAGCUCAACACAGAGUGGCAAAGUGGCUUUGGCUAUACUGCC	0.07
GGCAGUGCUCAACACAGCGUGGCAAACAGGCUGUGGCUAGACUGCC	0.32
GGCAGACCUCAACACAGCGUGGAAAAGUGGCUGUGGCUAGACUGCU	0.08
GGCAGAGCUCAAUACAGCGUGGCAAAGUGGCUUUGGCUAAACUGAC	0.06
GGCAGGGCUCAACACAGCGUGGCAAAGUGGCUGUGGCGAGAAUGCC	0
